# Results are given in words; binding and its absence hold for the method and conditions named. Some results given as binding are weak or reduced against the parent protein; the word gives no strength. Where a sequence is shown, tags or fusion partners need not be part of it.
# T1: D. discoideum G protein α10-subunit fused to the GAL4 DNA-binding domain (pAS2-1) (D. discoideum) (UniProt Q55EP5)
# T1 sequence: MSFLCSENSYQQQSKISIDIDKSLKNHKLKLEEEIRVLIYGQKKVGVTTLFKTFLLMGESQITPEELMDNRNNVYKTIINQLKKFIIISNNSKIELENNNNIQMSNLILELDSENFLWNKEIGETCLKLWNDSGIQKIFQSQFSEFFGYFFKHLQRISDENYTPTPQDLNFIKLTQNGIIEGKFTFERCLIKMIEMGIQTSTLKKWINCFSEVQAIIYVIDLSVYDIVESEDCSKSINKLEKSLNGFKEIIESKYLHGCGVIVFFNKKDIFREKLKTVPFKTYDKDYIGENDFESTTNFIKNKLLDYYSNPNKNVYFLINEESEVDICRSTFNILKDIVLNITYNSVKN
# T2: D. discoideum G protein α11-subunit fused to the GAL4 DNA-binding domain (pAS2-1) (D. discoideum) (UniProt Q8T130)
# T2 sequence: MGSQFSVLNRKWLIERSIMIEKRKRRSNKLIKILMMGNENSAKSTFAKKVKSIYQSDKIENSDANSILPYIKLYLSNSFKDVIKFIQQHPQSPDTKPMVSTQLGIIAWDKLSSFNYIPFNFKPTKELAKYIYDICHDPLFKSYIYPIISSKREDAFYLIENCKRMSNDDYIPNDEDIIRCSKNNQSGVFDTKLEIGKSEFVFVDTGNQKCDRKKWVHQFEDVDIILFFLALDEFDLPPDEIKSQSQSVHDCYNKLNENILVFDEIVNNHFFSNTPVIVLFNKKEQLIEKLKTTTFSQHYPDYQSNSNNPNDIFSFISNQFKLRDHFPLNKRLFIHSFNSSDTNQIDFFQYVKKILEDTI
# T3: D. discoideum G protein α2-subunit fused to the GAL4 DNA-binding domain (pAS2-1) (D. discoideum) (UniProt P16051)
# T3 sequence: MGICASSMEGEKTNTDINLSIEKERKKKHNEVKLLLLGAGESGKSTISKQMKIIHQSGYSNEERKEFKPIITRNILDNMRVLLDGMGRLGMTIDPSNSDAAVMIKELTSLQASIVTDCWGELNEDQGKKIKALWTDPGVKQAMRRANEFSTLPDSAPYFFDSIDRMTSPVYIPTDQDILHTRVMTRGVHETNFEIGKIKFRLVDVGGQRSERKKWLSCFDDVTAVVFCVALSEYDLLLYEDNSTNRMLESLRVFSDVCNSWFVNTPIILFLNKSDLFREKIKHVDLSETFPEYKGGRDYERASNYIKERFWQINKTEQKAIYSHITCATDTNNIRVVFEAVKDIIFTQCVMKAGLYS
# T4: D. discoideum G protein α5-subunit fused to the GAL4 DNA-binding domain (pAS2-1) (D. discoideum) (UniProt P34043)
# T4 sequence: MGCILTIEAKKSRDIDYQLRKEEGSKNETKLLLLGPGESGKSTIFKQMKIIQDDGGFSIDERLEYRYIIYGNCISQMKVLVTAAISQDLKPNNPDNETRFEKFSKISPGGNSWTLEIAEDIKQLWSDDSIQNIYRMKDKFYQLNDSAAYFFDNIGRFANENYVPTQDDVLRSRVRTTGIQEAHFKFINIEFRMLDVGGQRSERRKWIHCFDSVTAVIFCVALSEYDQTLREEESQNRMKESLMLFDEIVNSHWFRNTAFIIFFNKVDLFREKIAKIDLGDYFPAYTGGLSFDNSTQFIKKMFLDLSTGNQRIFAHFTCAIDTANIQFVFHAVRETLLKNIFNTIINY
# T5: D. discoideum G protein β-subunit fused to the GAL4 DNA-binding domain (pAS2-1) (D. discoideum) (UniProt P36408)
# T5 sequence: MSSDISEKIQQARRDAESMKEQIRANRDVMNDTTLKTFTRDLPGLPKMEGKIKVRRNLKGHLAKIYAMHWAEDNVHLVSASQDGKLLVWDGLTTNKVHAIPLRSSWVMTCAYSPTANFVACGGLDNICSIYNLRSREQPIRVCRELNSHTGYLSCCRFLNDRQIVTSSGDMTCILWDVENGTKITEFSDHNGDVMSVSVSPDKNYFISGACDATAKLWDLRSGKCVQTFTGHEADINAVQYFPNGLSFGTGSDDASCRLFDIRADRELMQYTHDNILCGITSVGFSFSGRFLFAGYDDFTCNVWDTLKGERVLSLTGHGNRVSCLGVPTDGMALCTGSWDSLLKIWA
# T6: D. discoideum G protein γ-subunit fused to the GAL4 DNA-binding domain (pAS2-1) (D. discoideum) (UniProt Q95ZG8)
# T6 sequence: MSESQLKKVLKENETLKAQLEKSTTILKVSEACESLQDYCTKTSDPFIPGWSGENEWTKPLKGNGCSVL
# B1: DdRACK1 fused to the GAL4 activation domain (pACT2) (protein, UniProt P46800 1-329)
# chain: MEQQKAPQVTYLEVGSLVGHNGFVTSIAVSPENPDTIISSSRDKTVMVWQLTPTDATSPGKAHRSLKGHSHFVQDVVISHDGQFALSGSWDNTLRLWDITKGVSTRLFKGHTQDVMSVAFSSDNRQIISGSRDATIKVWNTLGECKFTLEGPEAHQDWVSCIRFSPNTPTIVSGSWDNKVKIWDIKSFKCNHTLTDHTGYVNTVTISPDGSLCASGGKDTFACLWELSSGKPLYKLEARNTINALAFSPNKYWLSAATDDKIIIWDLLTKQVLAEIVPEVKEQAFDSKKKKESKPKAPACLSLAWSADGSVLYAGYNDGLIRVYKSSSQ
# Experiments:
# Experiment in all cases: two-hybrid; yeast Y190; DdRACK1 in pACT2 (GAL4 AD), G protein subunits in pAS2-1 (GAL4 BD); growth on SD/-Leu/-Trp/-His/+3AT plates and colony-lift β-galactosidase assay read at 1 to 6 h and after 24 h
# [1] = target: T1, D. discoideum G protein α10-subunit fused to the GAL4 DNA-binding domain (pAS2-1) (D. discoideum)
# [2] = target: T2, D. discoideum G protein α11-subunit fused to the GAL4 DNA-binding domain (pAS2-1) (D. discoideum)
# [3] = target: T3, D. discoideum G protein α2-subunit fused to the GAL4 DNA-binding domain (pAS2-1) (D. discoideum)
# [4] = target: T4, D. discoideum G protein α5-subunit fused to the GAL4 DNA-binding domain (pAS2-1) (D. discoideum)
# [5] = target: T5, D. discoideum G protein β-subunit fused to the GAL4 DNA-binding domain (pAS2-1) (D. discoideum)
# [6] = target: T6, D. discoideum G protein γ-subunit fused to the GAL4 DNA-binding domain (pAS2-1) (D. discoideum)
binder,measurement,setting,value
B1,binding,[1],no binding
same,binding,[2],no binding
same,binding,[3],binds
same,binding,[4],no binding
same,binding,[5],binds
same,binding,[6],binds

# — article PMC4094278, “The Dictyostelium discoideum RACK1 orthologue has roles in growth and development” (Cell Communication and Signaling : CCS, 2014)
